Here are results for 27 molecules from PubChem BioAssay AID328 (DTP/NCI, 2004).

The test system of the test is BDF1 mice, P388 leukemia ip, median survival T/C. In words: NCI In Vivo Anticancer Drug Screen. Data for tumor model P388 Leukemia (intraperitoneal) in B6D2F1 (BDF1) mice. To be noted: endpoint: median survival time, higher = longer survival. The procedure, abridged:
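In tumour-bearing mice, survival after compound treatment is set against the vehicle group and given as a quotient.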

The mark [1] stands for this setting: dose: 75.0 mg/kg/injection, schedule: Q04DX003 (ip), vehicle: saline.
Setting [2] is: dose: 400.0 mg/kg/injection, schedule: Q01DX009 (ip), vehicle: Klucel (hydroxypropylcellulose) (HPC).
[3] abbreviates: dose: 100.0 mg/kg/injection, schedule: Q01DX009 (ip), vehicle: Klucel (hydroxypropylcellulose) (HPC).

The structures appear in SMILES notation. Inconclusive results and toxic doses are left out. For part of its entries the source gives two or more results. They are shown here; other results are not. An entry can have further records. Results that share an entry are repeats (runs, samples, wells, individuals or studies).

Take `CCCCNP(=O)(N1CC1C)N1CC1C` (stereo not given): the T/C under setting [1] is 108 % of control and 154 % of control.
With `CCC(c1ccc2cc(OC)ccc2c1)C(C)(C)C(=O)F` (stereo not given), the T/C (dose: 50.0 mg/kg/injection, schedule: Q01DX009 (ip), vehicle: Klucel (hydroxypropylcellulose) (HPC)) is 104 % of control and 155 % of control.
In the case of `O=C(NO)c1ccccc1`, the T/C under setting [2] is given as 109 % of control, 154 % of control, 179 % of control.
For the molecule `CC[n+]1ccc(Nc2ccc(NC(=O)c3ccc(C(=O)Nc4ccc(Nc5cc[n+](CC)c(N)n5)cc4)cc3)cc2)nc1N`, the T/C was 115 % of control and 166 % of control (dose: 1.25 mg/kg/injection, schedule: Q01DX009 (ip), vehicle: saline); 119 % of control and 161 % of control (dose: 5.0 mg/kg/injection, schedule: Q01DX009 (ip), vehicle: saline).
As to `CNCCN(C)CCN(C)Cc1ccc(OC)cc1`, the T/C (dose: 200.0 mg/kg/injection, schedule: Q01DX009 (ip), vehicle: water) is 101 % of control and 192 % of control.
Regarding `CC1=Nc2ccccc2/C1=C\c1c(C)[nH]c2ccccc12`, the T/C (dose: 25.0 mg/kg/injection, schedule: Q01DX009 (ip), vehicle: Klucel (hydroxypropylcellulose) (HPC)) was 95 % of control, 100 % of control, 166 % of control.
With `CCc1cc2c(cc1C(=O)CBr)C(C)(C)CCC2(C)C`, the T/C (dose: 35.0 mg/kg/injection, schedule: Q04DX003 (ip), vehicle: Klucel (hydroxypropylcellulose) (HPC)) was 115 % of control and 155 % of control.
For `O=CNc1ccc(/C=C\c2ccnc3ccccc23)cc1`, the T/C (dose: 25.0 mg/kg/injection, schedule: Q01DX009 (ip), vehicle: saline with Tween-80) was 118 % of control and 152 % of control.
As for `Oc1ccccc1OB(Oc1ccccc1O)N(CCCl)CCCl`, the T/C under setting [1] was 119 % of control, 179 % of control, 186 % of control; the T/C (dose: 112.5 mg/kg/injection, schedule: Q04DX003 (ip), vehicle: saline) is 100 % of control and 180 % of control.
As for `CCCCCCCCCCCC[n+]1cccc2ccccc21`, the T/C (dose: 0.23 mg/kg/injection, schedule: Q01DX009 (ip), vehicle: saline) was 100 % of control, 113 % of control, 160 % of control.
Regarding `OCC1OC(n2cnc3cncnc32)C(O)C1O` (stereo not given), for the setting “dose: 3.13 mg/kg/injection, schedule: Q01DX009 (ip), vehicle: saline”, the T/C is 122 % of control, 152 % of control, 160 % of control.
On to `Cc1c2oc3c(C)ccc(C(=O)NC4C(=O)NC(C(C)C)C(=O)N5CCCC5C(=O)N(C)CC(=O)N(C)C(C(C)C)C(=O)OC4C)c3nc-2c(C(=O)NC2C(=O)NC(C(C)C)C(=O)N3CCCC3C(=O)N(C)CC(=O)N(C)C(C(C)C)C(=O)OC2C)cc1=O` (stereo not given), for which the T/C (dose: 3.24 mg/kg/injection, schedule: Q04DX003 (ip), vehicle: saline + alcohol) was 117 % of control and 157 % of control.
On to `Nc1nc(SCc2ccccn2)c2[nH]cnc2n1`, for which the T/C (dose: 100.0 mg/kg/injection, schedule: Q04DX003 (ip), vehicle: Klucel (hydroxypropylcellulose) (HPC)) was 100 % of control and 150 % of control.
`CCC(C)P(=O)(N1CC1)N1CC1` (stereo not given): the T/C by setting is: (dose: 16.5 mg/kg/injection, schedule: Q04DX003 (ip), vehicle: saline) 120 % of control and 181 % of control; (dose: 25.0 mg/kg/injection, schedule: Q04DX003 (ip), vehicle: saline) 86 % of control and 170 % of control.
`Cc1ccc(S(=O)(=O)OCCN(CCOS(=O)(=O)c2ccc(C)cc2)c2ccc(F)cc2)cc1`: where the note is “dose: 100.0 mg/kg/injection, schedule: Q01DX009 (ip), vehicle: other”, the T/C is reported as 113 % of control, 163 % of control, 168 % of control.
For `O=C(c1ccccc1)C(Cl)C(=O)c1ccccc1`, the T/C (dose: 100.0 mg/kg/injection, schedule: Q01DX001 (ip), vehicle: saline with Tween-80) was 100 % of control and 160 % of control.
On to `O=C1CCCN1.O=C1CCCN1.[Br][Co][Br]`, for which the T/C (dose: 100.0 mg/kg/injection, schedule: Q01DX009 (ip), vehicle: saline) is 95 % of control and 154 % of control.
For `Cc1ccc(C2NC(=O)c3ccccc3N2)s1` (stereo not given), the T/C under setting [2] is listed as 123 % of control, 188 % of control, 190 % of control.
Take `CCC[CH2][Sn]1([CH2]CCC)[O]OC(c2ccccc2)[O]1` (stereo not given): the T/C (dose: 3.0 mg/kg/injection, schedule: Q01DX009 (ip), vehicle: saline with Tween-80) was 110 % of control and 150 % of control.
With `c1ccc([P+](c2ccccc2)(c2ccccc2)c2ccccc2)cc1`, where the note is “dose: 1.7 mg/kg/injection, schedule: Q04DX003 (ip), vehicle: saline”, the T/C was 110 % of control and 154 % of control.
As for `Nc1ncc(CNc2ccc(C(=O)NC(CCC(=O)O)C(=O)O)cc2)c(N)n1` (stereo not given), the T/C under setting [3] is 99 % of control and 150 % of control.
For `CCC1CN1CC1CO1` (stereo not given), the T/C (dose: 132.0 mg/kg/injection, schedule: Q04DX003 (ip), vehicle: Klucel (hydroxypropylcellulose) (HPC)) is 122 % of control and 150 % of control.
For the molecule `CCCCCCCCCCCC[N+](C)(C)C` (tested in a mixture with another compound), the T/C (dose: 14.0 mg/kg/injection, schedule: Q01DX009 (ip), vehicle: saline) is 107 % of control and 157 % of control.
With `O=NN(CCCl)C(=O)NC1CCCCC1`, where the note is “dose: 40.0 mg/kg/injection, schedule: Q01DX001 (oral), vehicle: carboxymethylcellulose (CMC)”, the T/C is 124 % of control and 191 % of control.
As to `CCCC(=O)Nc1ccn(C2OC(COC(=O)CCC)C(OC(=O)CCC)C2OC(=O)CCC)c(=O)n1` (stereo not given), the T/C under setting [3] is given as 122 % of control, 150 % of control, 168 % of control.
Take `CC(C)C[C@H](O)C(=O)O`: for the setting “dose: 50.0 mg/kg/injection, schedule: Q01DX009 (ip), vehicle: saline”, the T/C was 104 % of control and 150 % of control.
As for `COCCOCCN1CCN(CCCN2c3ccccc3Sc3ccc(C(F)(F)F)cc32)CC1`, for the setting “dose: 6.25 mg/kg/injection, schedule: Q04DX003 (ip), vehicle: saline”, the T/C is 112 % of control and 161 % of control.
